Test results published in PubChem BioAssay AID504333 (National Center for Advancing Translational Sciences (NCATS), 2011).
Among all 360,000 compounds or so, about 16,000 (4.4%) were called active. This list was built around the results that the source calls inconclusive (neither active nor inactive); the mix of calls is not that of the screen. The call rests on the fitted dose curve; in most records, active means well fitted inhibition curve with a large enough effect; inconclusive means small, poorly fitted or top-dose-only effect; inactive means no such curve, though single readings can be large or run the other way. Where the call is inconclusive, the potency comes from a doubtful curve fit.

Target: Bromodomain adjacent to zinc finger domain protein 2B (Homo sapiens) (UniProt Q9UIF8)
Experiment: qHTS Assay for Inhibitors of BAZ2B; further: nearly all actives have a fitted effect of over 60% in size
Settings: AlphaScreen BAZ2B-H3K14Ac peptide displacement; activity change, negative = inhibition: at 114 µM (top of the series)
How it was run: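 BAZ2B (50 nM) with biotin-H3(5-23)K14Ac peptide (50 nM) in PBS pH 7.4, 0.01% Tween-20, preformed 30 min, then compound 30 min at room temperature; top concentration 110uM. AlphaScreen streptavidin donor/nickel chelate acceptor beads (10 ug/mL final), 20 min dark, signal read.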
On the % scale 0 is the no-effect control and ±100 the full control effect; potency means the concentration at half of the fitted maximal effect; tags describe the fitted curve by direction and shape.

Sequence of UniProt Q9UIF8 (Q9UIF8 whole entry, looked up, the tested form may be a part): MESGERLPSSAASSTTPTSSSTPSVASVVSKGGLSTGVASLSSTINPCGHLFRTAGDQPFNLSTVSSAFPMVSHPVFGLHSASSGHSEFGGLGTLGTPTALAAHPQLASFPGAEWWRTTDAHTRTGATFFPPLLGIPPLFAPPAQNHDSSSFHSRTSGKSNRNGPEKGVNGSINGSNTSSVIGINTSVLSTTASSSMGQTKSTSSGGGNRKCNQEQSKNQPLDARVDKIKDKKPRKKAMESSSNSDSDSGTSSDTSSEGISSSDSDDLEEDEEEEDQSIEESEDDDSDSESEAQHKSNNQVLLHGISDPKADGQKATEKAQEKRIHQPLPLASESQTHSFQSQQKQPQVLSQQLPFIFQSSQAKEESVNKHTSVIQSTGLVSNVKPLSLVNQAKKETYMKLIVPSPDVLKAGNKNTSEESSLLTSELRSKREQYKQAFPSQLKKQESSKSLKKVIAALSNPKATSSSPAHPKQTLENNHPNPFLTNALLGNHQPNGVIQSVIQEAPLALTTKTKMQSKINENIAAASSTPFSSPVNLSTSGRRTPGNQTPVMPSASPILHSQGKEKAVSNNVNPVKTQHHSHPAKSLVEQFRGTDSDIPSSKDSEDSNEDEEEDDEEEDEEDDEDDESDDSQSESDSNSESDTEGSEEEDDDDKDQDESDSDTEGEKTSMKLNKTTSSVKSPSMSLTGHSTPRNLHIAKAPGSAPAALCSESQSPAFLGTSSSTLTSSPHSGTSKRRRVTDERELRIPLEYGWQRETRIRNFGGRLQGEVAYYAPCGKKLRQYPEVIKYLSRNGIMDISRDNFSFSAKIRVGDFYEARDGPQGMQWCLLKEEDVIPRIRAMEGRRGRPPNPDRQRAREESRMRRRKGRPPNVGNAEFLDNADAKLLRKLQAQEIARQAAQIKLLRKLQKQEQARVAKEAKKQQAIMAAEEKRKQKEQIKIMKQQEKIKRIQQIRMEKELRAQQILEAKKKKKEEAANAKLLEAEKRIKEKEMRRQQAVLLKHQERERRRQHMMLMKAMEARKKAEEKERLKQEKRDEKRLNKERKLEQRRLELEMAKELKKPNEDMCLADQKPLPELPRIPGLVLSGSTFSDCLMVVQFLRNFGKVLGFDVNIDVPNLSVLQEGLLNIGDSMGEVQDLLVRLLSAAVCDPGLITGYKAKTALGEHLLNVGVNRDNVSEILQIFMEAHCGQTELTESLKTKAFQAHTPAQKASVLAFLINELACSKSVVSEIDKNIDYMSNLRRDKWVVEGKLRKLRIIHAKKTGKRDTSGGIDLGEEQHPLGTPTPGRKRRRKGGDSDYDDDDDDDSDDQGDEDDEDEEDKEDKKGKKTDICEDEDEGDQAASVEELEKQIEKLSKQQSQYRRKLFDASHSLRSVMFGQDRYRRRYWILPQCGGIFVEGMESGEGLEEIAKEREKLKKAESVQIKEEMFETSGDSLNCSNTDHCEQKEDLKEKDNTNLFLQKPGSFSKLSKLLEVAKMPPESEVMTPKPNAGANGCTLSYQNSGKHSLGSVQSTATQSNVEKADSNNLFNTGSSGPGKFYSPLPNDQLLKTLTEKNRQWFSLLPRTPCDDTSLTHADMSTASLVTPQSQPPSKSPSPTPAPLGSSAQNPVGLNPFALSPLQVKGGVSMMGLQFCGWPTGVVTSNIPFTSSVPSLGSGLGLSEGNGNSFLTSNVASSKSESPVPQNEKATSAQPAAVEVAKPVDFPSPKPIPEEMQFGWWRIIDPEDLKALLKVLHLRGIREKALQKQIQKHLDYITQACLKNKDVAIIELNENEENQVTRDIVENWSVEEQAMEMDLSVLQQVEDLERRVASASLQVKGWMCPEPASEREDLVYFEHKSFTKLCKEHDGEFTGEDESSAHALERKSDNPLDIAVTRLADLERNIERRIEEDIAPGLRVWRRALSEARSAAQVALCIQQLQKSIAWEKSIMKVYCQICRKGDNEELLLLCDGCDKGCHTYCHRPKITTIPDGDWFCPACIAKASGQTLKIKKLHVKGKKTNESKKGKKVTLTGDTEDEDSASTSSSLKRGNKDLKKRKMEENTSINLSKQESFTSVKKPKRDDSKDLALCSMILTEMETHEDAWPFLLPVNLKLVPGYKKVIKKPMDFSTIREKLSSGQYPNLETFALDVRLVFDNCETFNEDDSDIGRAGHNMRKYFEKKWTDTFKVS

| Structure (SMILES) | Potency | activity change, negative = inhibition |
| --- | --- | --- |
| COc1ccc(CCC(=O)NCc2ccco2)cc1 | inconclusive: 50.1 µM [inhibitor, partial curve] | – |
| COC(=O)c1cccc(Cn2c(Cl)c(/C=N/NC(=O)c3ccco3)sc2=O)c1 | active: 56.2 µM | – |
| C(=N\c1nccs1)/c1c[nH]c2ccccc12 | inconclusive: 89.1 µM [inhibitor, single point] | – |
| CCCc1c(C(=O)N/N=C/c2ccccc2C(F)(F)F)nnn1-c1nonc1N | – | inactive: -7.87% |
| CC1Cc2ccccc2N1C(=O)COC(=O)Cc1ccc(F)cc1 (configuration not stated) | – | inactive: 7.82% |
| CC1CCCN(CCOCCOc2ccc(Br)cc2Cl)C1 (configuration not stated) | inconclusive: 50.1 µM [inhibitor, partial curve] | – |
| O=C(O)c1cc(S(=O)(=O)Nc2cc(Cl)ccc2Oc2ccccc2)ccc1O | – | inactive: -32.7% |
| CSc1ccccc1OCc1cc(C(=O)N2CCN(C3CCCC3)C(=O)C2)no1 | inconclusive: 79.4 µM [inhibitor, single point] | – |
| COc1ccccc1N1CCN(C(=O)c2ccc3[nH]c(C)c(C)c3c2)CC1 | inconclusive: 39.8 µM [inhibitor, partial curve] | – |
| O=C(CSc1n[nH]c(-c2ccccc2O)n1)N1CCOCC1 | inconclusive: 56.2 µM [inhibitor, partial curve] | – |
| Cc1ccc2cc(C3CC(c4ccco4)=NN3C(=O)CCC(=O)O)c(Cl)nc2c1 (configuration not stated) | – | inactive: -8.67% |
| Cc1coc2c1c(C)cc1oc(=O)c(CC(=O)NCC(=O)NCC(=O)O)c(C)c12 | – | inactive: -0.97% |
| Clc1ccc(-c2nnc(C34CC5CC(CC(C5)C3)C4)o2)cn1 | – | inactive: -0.624% |
| COc1ccc(C(=O)CSc2nnc(-c3cnccn3)n2Cc2ccco2)cc1 | inconclusive: 89.1 µM [inhibitor, single point] | – |
| Cc1nc2ccc(C(=O)Nc3ccc4nc[nH]c4c3)cc2[nH]1 | inconclusive: 100 µM [inhibitor, single point] | – |
| COc1ccc(CSCCc2n[nH]c(=S)n2-c2ccccc2)cc1 | inconclusive: 89.1 µM [inhibitor, single point] | – |
| Cc1cccc(N2CC(C(=O)Nc3nnc(SCC(=O)Nc4cc(C)on4)s3)CC2=O)c1 (configuration not stated) | inconclusive: 89.1 µM [inhibitor, single point] | – |
| C#CCOCCOCCOCCNc1nc(N2CCN(C(=O)Cn3cc(CCCN=C(N)N)nn3)CC2)nc(N2CCN(C(=O)[C@H](C)n3cc(CCCN=C(N)N)nn3)CC2)n1 | inconclusive: 89.1 µM [inhibitor, single point] | – |
| CCN(CC)S(=O)(=O)c1cccc(-c2nnc(SCC(N)=O)n2CCc2ccccc2)c1 | inconclusive: 3.55 µM [inhibitor, single point] | – |
| CCOC(=O)c1c(NC(=O)c2cc3nc(-c4ccc(OC)cc4)cc(C(F)(F)F)n3n2)sc2c1CCC(C)C2 (configuration not stated) | – | inactive: 1.63% |
| C/C=C(\C)C(=O)NCCN1C2=NC[C@H](C(C)C)N2C[C@@H]1Cc1ccc(OC)cc1 | inconclusive: 79.4 µM [inhibitor, single point] | – |

| Structure (SMILES) | Potency | activity change, negative = inhibition |
| --- | --- | --- |
| COC(=O)[C@@]1(Cc2ccc(F)cc2)[C@H]2c3cc(C(=O)N(C)C)n(Cc4ccccc4)c3C[C@H]2CN1C(=O)c1ccccc1 | inconclusive: 44.7 µM [inhibitor, full curve, poor fit] | – |
| Cc1csc(NC(=O)CSc2ncnc3ccccc23)n1 | – | inactive: 7.79% |
| C=CC[n+]1c(-c2ccccc2)csc1NC(C)(C)C | active: 50.1 µM | – |
| CCN(CC)c1ccc([C@H]2[C@@H]3CCCC[C@]3(O)CCN2CC(=O)NCc2ccco2)cc1 | inconclusive: 56.2 µM [inhibitor, partial curve] | – |
| CC(C)(C)c1ccc(OCCCN2CCCC2)cc1 | inconclusive: 89.1 µM [inhibitor, single point] | – |
| CCOc1ccccc1N1CCN(C(=O)c2cccc(-c3ccc(O)cc3)c2)CC1 | inconclusive: 79.4 µM [inhibitor, single point] | – |
| Nc1cc(C(=O)OCC(=O)c2ccc(CC(=O)N3CCOCC3)s2)ccc1Cl | inconclusive: 89.1 µM [inhibitor, single point] | – |
| COCCNC(=O)C(=O)NCC1OCCN1S(=O)(=O)c1ccc(F)cc1 (configuration not stated) | – | inactive: -13.1% |
| CC(=O)c1ccc(NC(=O)CSc2nccn2CCc2ccccc2)cc1 | inconclusive: 50.1 µM [inhibitor, partial curve] | – |
| CCc1cccc(C)c1NC(=O)c1cc(S(=O)(=O)N2CCCCCC2)cn1C | – | inactive: -5.13% |
| COc1ccc(C(=O)OC(COc2ccccc2)Cn2ccnc2)cc1 (configuration not stated) | inconclusive: 70.8 µM [inhibitor, single point] | – |
| O=c1c2c3c(sc2ncn1-n1cccc1)CCCCC3 | inconclusive: 50.1 µM [inhibitor, partial curve] | – |
| CN1CCN(C2=C(NS(=O)(=O)c3ccccc3)C(=O)c3ccccc3C2=O)CC1 | inconclusive: 50.1 µM [inhibitor, partial curve] | – |
| FC(F)(F)C1=Nc2cccc3cccc(c23)N1 | inconclusive: 4.47 µM [inhibitor, full curve, poor fit] | – |
| O=C1/C(=C/c2ccc(O)c(O)c2)Oc2cc(O)ccc21 | active: 56.2 µM | – |
| Nc1cc([N+](=O)[O-])ccc1Nc1ccccc1 | inconclusive: 44.7 µM [inhibitor, partial curve] | – |
| O=C(CSc1nnc(-c2ccc(O)cc2)n1-c1ccccc1)CC(=O)Nc1ccccc1 | inconclusive: 89.1 µM [inhibitor, single point] | – |
| CCCOC(=O)CSC1=C(C#N)C(c2ccccc2OC)C(C#N)C(=O)N1 (configuration not stated) | inconclusive: 79.4 µM [inhibitor, single point] | – |
| COc1ccc(NC(C)C(=O)N/N=C/c2ccccc2OCc2ccc(Br)cc2)cc1 (configuration not stated) | inconclusive: 79.4 µM [inhibitor, partial curve] | – |
| O=C(NC(=S)NC1C2CC3CC(C2)CC1C3)c1ccccc1 (configuration not stated) | inconclusive: 35.5 µM [inhibitor, partial curve] | – |
| C=CCOC(=O)C1=C(C)N=c2s/c(=C3\C(=O)N(CC(=O)O)c4ccccc43)c(=O)n2C1c1ccc(OC)cc1 (configuration not stated) | inconclusive: 2.24 µM [inhibitor, full curve, poor fit] | – |
